This is one part of the list.
system: PF3D7_0420300 AP2 domain 1 (GST-tagged); test: gcPBM binding intensity (ln(normalized median fluorescence intensity)); higher = stronger DNA binding
Method in brief: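 Binding intensity is the highest Masliner-normalised natural-log median intensity over replicate spots in either probe orientation. To obtain it, GST-tagged P. falciparum DNA-binding domains made in E. coli were incubated for 1 h on an Agilent 4 × 180k array of primer-extended double-stranded 36-bp intergenic genomic probes plus negative controls. Detection used Alexa488 anti-GST antibody with scanning at 488 nm.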

Row | Sequence | gcPBM binding intensity (ln)
1 | TATATATGGGTACTAATTCCTTTAATTTCTTTAATT [CACACA_negctrl_site949] | 9.25
2 | AATTATATTCAAAATGGTACACACAATATTTAATTG [XGTACX_site5521] | 9.37
3 | AAAAAAAAATTAGGGGTGCCATTTGCTGCTGTGCTT [GTGCAC_site9913] | 9.21
4 | TTTTGTATTTCTCACACACACATAAGTAAACAATAA [CACACA_site5105] | 9.72
5 | TAAACTATATTTACATGTACATATAATATTAAATAA [XGTACX_site3528] | 9.15
6 | CCTATAAAACCATATACACACATATAAATAAAAAAA [CACACA_site7809] | 9.68
7 | TATTACATTATTCAAAAAAATTTATATGGTTATAGG [CACACA_negctrl_site1657] | 8.92
8 | TGATAATAAGCATACACACACACACCCAAAAAAAAA [CACACA_site721] | 10.2
9 | TTTTTTTTTTCTTTTTTTCTCATGAAATTCTAAATG [CACACA_negctrl_site918] | 9
10 | AAATAAAAAAAAAAAAAAAATAACTTAAATGGGATA [TGCATGCA_negctrl_site595] | 9.29
11 | AACTAAATGTTATTCGCACACGGAATTTATTTAATG [CACACA_site3664] | 9.26
12 | ATATATATATATATATATATATATATGATTATTACT [GTGCAC_negctrl_site109] | 9.13
13 | ATTAATATGAATAAAACACACATATATAACTTGTAA [CACACA_site6989] | 9.54
14 | AAAAATTTGGCATACACACACACACGCACACGCACA [CACACA_site6422] | 10.2
15 | AATTATACTCACGTTACACACACACTATAAATATAT [CACACA_site7863] | 10.2
16 | ATCTTATATTATCACACACACACGCACAAAACAGAA [CACACA_site1463] | 10.1
17 | ATATTATATAGAAACACACATACACATGTAAATATA [CACACA_site2037] | 9.83
18 | TTTATTAAACTTGACACACACACACCCACATATATA [CACACA_site760] | 10.2
19 | ATGGATTTTACCATAGCACACATATATGAATATTTT [CACACA_site8535] | 9.34
20 | TAATTATTTCGTATATTTGAATGGTACATGCTTATA [CACACA_negctrl_site1178] | 9.06
21 | ATATAGAAAATGCATACACACTTTATATATATATTT [CACACA_site4658] | 9.42
22 | AATGTGCTCGCTATTACACACTCATTGGGATAAAAT [CACACA_site8627] | 9.37

Row | Sequence | gcPBM binding intensity (ln)
23 | AGTAACAATTATTATGCATGTACAAATAATCATTTT [TGCATGCA_site867] | 9.27
24 | TATATTTATATACCAACACACATACATATTTATATA [CACACA_site6931] | 9.61
25 | AAAATTCAGCGAAAGGGTACATATGTGTAAGGGTAA [XGTACX_site8205] | 9.82
26 | CTATTATATCAGTAGACACACATATAACATTTATAT [CACACA_site141] | 9.36
27 | TATATTTTGTTTTTGTGTACATATTGGTAGTTATTT [XGTACX_site7659] | 9.66
28 | TGATTATCCTATATATATTTCATAATGGAAAAAAAT [TGCATGCA_negctrl_site444] | 8.95
29 | AATGTGGTATTTACAAAAAGGCTTTATACTTAAAAA [XGTACX_negctrl_site566] | 8.84
30 | AAAAATAGTCTTCTTGCACTTTTTAATTTATTTTAA [CACACA_negctrl_site1322] | 8.86
31 | CTTTTCATCTTCTTAACACACAAAAAAAAAAAAAAA [CACACA_site3886] | 8.92
32 | AAGAAAATATAACAAAGTAAAAACATATTATATATA [TGCATGCA_negctrl_site248] | 9.31
33 | TATATATATTTTTGAAGTACTTATTACACTAGCATT [XGTACX_site8965] | 9.21
34 | TTGTTCTATAATTATACATGCATTAACAGAGTAAAA [TGCATGCA_site909] | 9.08
35 | ATATATATATATATATGTACATATATTTTCTTTTTG [XGTACX_site6017] | 9.12
36 | TTTTTTTTTTTTTAATGTACAAATATGGTGACAAAA [XGTACX_site8709] | 8.77
37 | AAAAACGATTAATGTGTACACACATAGTTATAAACA [CACACA_site8659] | 9.74
38 | AGGATAACATACAAAAGTACATAAAACTAAAAAAAC [XGTACX_site26] | 9.72
39 | CATACACCCGGACACACACACACACCCATATATAAT [CACACA_site4494] | 10.3
40 | TTGTTTTTTTCTTTTTGTACATATACAACATACATA [XGTACX_site8996] | 9.46
41 | AAACAATTTATGTGTAGTACATGTTGGAGATAATTT [XGTACX_site6000] | 9.35
42 | GAAAATATATTATTTACACACATGTTCAAATTAAAA [CACACA_site3761] | 9.27
43 | TATTAAATATAAGTCACACATAATTTTTCGTCCTTT [CACACA_site5065] | 9.24
44 | CTTTTTATTAAATATGCATGTGTATCAACAGTGAAT [TGCATGCA_site447] | 9.29

Row | Sequence | gcPBM binding intensity (ln)
45 | GTTATACGCATATATACACACATATGTAAATATATA [CACACA_site3280] | 9.48
46 | TAAAAAAAATAGCATACACACATATATACCTATATA [CACACA_site4535] | 9.72
47 | ATCATAACACCTCCACACAAATAAATATAACATATA [XGTACX_negctrl_site269] | 9.39
48 | ATGAGTGCACAAATATATATATATATATATATATAT [CACACA_negctrl_site404] | 9.63
49 | ATATAAAAAAAAAAAAAAAAATATATATATATATAT [GTGCAC_negctrl_site251] | 8.77
50 | TTGGTTTGAAAGAAAGAAATTATTAAAAAGGAAATA [CACACA_negctrl_site26] | 8.95
51 | GATATACTGTCAATTCTACACACCATAGGGGGAGCA [CACACA_site8562] | 9.93
52 | ATATATATATATACAACACACATGTAATATATAAAT [CACACA_site3294] | 9.57
53 | TACTGATCCACATTTATACACACCTCGGTTTGTAGA [CACACA_site417] | 9.42
54 | TATAGATTCTTTTAATGTACATGTCTTTTCATTTCC [XGTACX_site8348] | 9.22
55 | CCTTTATACATTTTCTGTACTGATATATATTAAAAA [XGTACX_site8467] | 9.22
56 | TTGTGTTCTTATTTTTACACCGAAAAATATTAAAAG [CACACA_negctrl_site535] | 8.99
57 | GTATGAAAAAAAATATGTACACATATATATTTGGTA [XGTACX_site6309] | 9.26
58 | TAGAAATATAATTAATGTACATATGATATTATATAT [XGTACX_site923] | 9.25
59 | ATTTATTTATATAGAAGTACATATTTATTTATATAT [XGTACX_site6283] | 9.05
60 | CTTTTTTAAATTATTGCACACAAAAATGAAAGGAAA [CACACA_site8412] | 9.15
61 | ACATCAAGCAGACACACACACACACCCACCCACCGA [CACACA_site371] | 10.2
62 | ATATATTTATTAAGGTGTACAAAAATTATGTTGCAT [XGTACX_site7546] | 9.36
63 | TATTTTATCTAAGGATGTACATTATTAAGAAAATGT [XGTACX_site6123] | 8.91
64 | TTATTATTGTTATGTTGTACTTTTACAAACTTTTTG [XGTACX_site8797] | 9.37
65 | TTCTATGAATTCATAGTGCAAATGAGTTATTTTTTC [GTGCAC_site9709] | 9.06
66 | AAGAAAATAGGGTTCATAGGATTATACTTTTGGAAT [TGCATGCA_negctrl_site80] | 9.21

Row | Sequence | gcPBM binding intensity (ln)
67 | AACGAGCAAGACGGGGTGCACACAAACTAATATGCC [GTGCAC_site9436] | 9.78
68 | TAATAAAAGATATATACACACAAATAAATAAATAAA [CACACA_site7818] | 9.72
69 | ATAATATAAACATATTGTACACATATATTGCTATTT [XGTACX_site2799] | 9.43
70 | AAAAAAAAATATATATATATATATATAAATAAATTT [CACACA_negctrl_site519] | 9.03
71 | AAATATAAAAAAAATATATAATTTTTACATCGAATT [CACACA_negctrl_site544] | 8.99
72 | AAACAAAATGGTAACACACACATATATAAATATGTA [CACACA_site6994] | 9.87
73 | TATTATAAAGAAATTACACACATGCAATGAAAAAAA [CACACA_site1697] | 9.51
74 | TCGTTTCCTTAAAATTGTACTTTTTTTTTTTTTTTT [XGTACX_site64] | 9.27
75 | AGAGTATATATATATGCATGCATATCTCATATTTAT [TGCATGCA_site509] | 9.25
76 | TGTTATTATTTGTACACACACATATAGATCCTTGTT [CACACA_site7667] | 9.97
77 | TAATGATAAATACATACACACAAAAAATAATATATA [CACACA_site2576] | 9.88
78 | ATTAAAGAGATATATACACACATTATGGGGGAATAA [CACACA_site6226] | 9.7
79 | ATAGAAATTATAAATAGTACATAATAAAAATGAGCA [XGTACX_site822] | 9.66
80 | CCTAAATATTTTTTATGTACATATTTATCTAAATTT [XGTACX_site6835] | 9.23
81 | TGAGGAAACATGAGATGTACATATAAATTTTTTTTT [XGTACX_site2595] | 9.14
82 | TTCATATAAATACATGCACACAAAAATATCAATACA [CACACA_site8753] | 9.64
83 | ATATATTTTATTACCAGTACATATATTAAAATAATA [XGTACX_site8440] | 9.1
84 | ATTTTTTTATTTGATTGTACAATTTTCTTTCAAAAT [XGTACX_site2902] | 9.23
85 | TATACAATATAAAATACACACGCACCCAAAAAAAAA [CACACA_site9174] | 9.83
86 | ATATAATGTGTAGGCCGTATTTACGTTTGGCAATCA [CACACA_negctrl_site1130] | 9.25
87 | TATAATATAATATATATATATATATATATATAAGAA [CACACA_negctrl_site78] | 9.02

Reference: the supplement of paper PMC11417369
